# From patent US20160168253A1
# T1: peptide substrate MCA-…(Dnp)-OH (R&D Systems Cat. No. ES005)
# T1 chain: RPPGFSAFK
# Molecular target: T1, peptide substrate MCA-…(Dnp)-OH (R&D …)
# Assay: cell-based or functional assay
binder,measurement,value
"trifunctional polypeptide TriGant (bispecific antibody, here or on the partner: N-terminal MCA; Dnp on the C-terminal Lys (K9)) heavy 1: QVELVESGGGLVQPGGSLRLSCAASGFTFSSYAMSWVRQAPGKGLEWVSAINASGTRTYYADSVKGRFTISRDNSKNTLYLQMNSLRAEDTAVYYCARGKGNTHKPYGYVRYFDVWGQGTLVTVSSASTKGPSVFPLAPSSKSTSGGTAALGCLVKDYFPEPVTVSWNSGALTSGVHTFPAVLQSSGLYSLSSVVTVPSSSLGTQTYICNVNHKPSNTKVDKKV[human IgG1 Fc with changes cut from this listing]GGSGGGGSGGGGSGGGGSDIQMTQSPASLSASLEEIVTITCQASQDIGNWLAWYQQKPGKSPQLLIYGATSLADGVPSRFSGSRSGTQFSLKISRVQVEDIGIYYCLQAYNTPWTFGGGTKVEIKRTVAAPSVFIFPPSDEQLKSGTASVVCLLNNFYPREAKVQWKVDNALQSGNSQESVTEQDSKDSTYSLSSTLTLSKADYEKHKVYACEVTHQGLSSPVTKSFNRGECGGGGSGGGGSGGGGSGGGGSGGGGSGGGGSGGEVQLVESGGGLVQPGNSLTLSCVASGFTFSNYGMHWIRQAPKKGLEWIAMIYYDSSKMNYADTVKGRFTISRDNSKNTLYLEMNSLRSEDTAMYYCAVPTSHYVVDVWGQGVSVTVSSASTKGPSVFPLAPSSKSTSGGTAALGCLVKDYFPEPVTVSWNSGALTSGVHTFPAVLQSSGLYSLSSVVTVPSSSLGTQTYICNVNHKPSNTKVDKKVEPKSC heavy 2: QVELVESGGGLVQPGGSLRLSCAASGFTFSSYAMSWVRQAPGKGLEWVSAINASGTRTYYADSVKGRFTISRDNSKNTLYLQMNSLRAEDTAVYYCARGKGNTHKPYGYVRYFDVWGQGTLVTVSSASTKGPSVFPLAPSSKSTSGGTAALGCLVKDYFPEPVTVSWNSGALTSGVHTFPAVLQSSGLYSLSSVVTVPSSSLGTQTYICNVNHKPSNTKVDKKV[human IgG1 Fc with changes cut from this listing]GGSGGGGSGGGGSYDDGICKSSDCIKSAARLIQNMDATTEPCTDFFKYACGGWLKRNVIPETSSRYGNFDILRDELEVVLKDVLQEPKTEDIVAVQKAKALYRSCINESAIDSRGGEPLLKLLPDIYGWPVATENWEQKYGASWTAEKAIAQLNSKYGKKVLINLFVGTDDKNSVNHVIHIDQPRLGLPSRDYYECTGIYKEACTAYVDFMISVARLIRQEERLPIDENQLALEMNKVMELEKEIANATAKPEDRNDPMLLYNKMTLAQIQNNFSLEINGKPFSWLNFTNEIMSTVNISITNEEDVVVYAPEYLTKLKPILTKYSARDLQNLMSWRFIMDLVSSLSRTYKESRNAFRKALYGTTSETATWRRCANYVNGNMENAVGRLYVEAAFAGESKHVVEDLIAQIREVFIQTLDDLTWMDAETKKRAEEKALAIKERIGYPDDIVSNDNKLNNEYLELNYKEDEYFENIIQNLKFSQSKQLKKLREKVDKDEWISGAAVVNAFYSSGRNQIVFPAGILQPPFFSAQQSNSLNYGGIGMVIGHEITHGFDDNGRNFNKDGDLVDWWTQQSASNFKEQSQCMVYQYGNFSWDLAGGQHLNGINTLGENIADNGGLGQAYRAYQNYIKKNGEEKLLPGLDLNHKQLFFLNFAQVWCGTYRPEYAVNSIKTDVHSPGNFRIIGTLQNSAEFSEAFHCRKNSYMNPEKKCRVW light: DIVLTQSPATLSLSPGERATLSCRASQSVSSSYLAWYQQKPGQAPRLLIYGASSRATGVPARFSGSGSGTDFTLTISSLEPEDFATYYCLQIYNMPITFGQGTKVEIKRTVAAPSVFIFPPSDEQLKSGTASVVCLLNNFYPREAKVQWKVDNALQSGNSQESVTEQDSKDSTYSLSSTLTLSKADYEKHKVYACEVTHQGLSSPVTKSFNRGEC","Km [µM] (apparent Km, hydrolysis of fluorogenic peptide substrate)",3.8 µM
